Laboratory results: paper PMC12136788
The list shows a part of the results.

T1: UNK ZnF1-3 (human, UniProt Q9C0B0 31-174)
T1 sequence: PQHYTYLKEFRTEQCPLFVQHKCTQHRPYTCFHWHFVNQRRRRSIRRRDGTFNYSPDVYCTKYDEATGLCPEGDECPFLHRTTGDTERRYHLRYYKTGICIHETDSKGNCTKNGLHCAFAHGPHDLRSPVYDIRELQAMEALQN

B1: chr3:9412954:9412955:+_ENSG00000134077_ENST00000452837|hu_mus|hu_hu_hu_mus_False|8_78 (ssRNA)
RNA: GGGAGUUCUACAGUCCGACGAUCGGUUGAUAUCUCUUCUUUGAUGGCUGGAUUUUCAUAAUAAUCUAAGAUAUGUGAAUCUGAAGUGCUGCUGGCAUGCUUUUUCUUACCAUCUUUCUCAUCUGCUUUGACUUCUUGUCCACACAACAGAGGAUUGAGCAUCA
B2: chr7:7679991:7679992:-_ENSG00000106399_ENST00000396682|hu_hu|hu_hu_hu_mus_False|8_58 (ssRNA)
RNA: GGGAGUUCUACAGUCCGACGAUCUGGGAUGAAUCUUUUCCAGCUUCCCCACGAAGCACACGGGCCGGUCGAUAUACUGAGCUAGCAUGCUGGCGUUGACGCGCGCUUUGGGGAGCUGCAUUAUGUCCACCAUGAUUCUGCCGCCAACAGAGGAUUGAGCAUCA
B3: chr11:122930651:122930652:-_ENSG00000109971_ENST00000227378|hu_mus|FALSE|FALSE (ssRNA)
RNA: GGGAGUUCUACAGUCCGACGAUCGUUGUCAAAAUCUUCUCCACCUAAGUGGGUGUCUCCAGCUGUUGAUUUGACCUCAAAAAUUCCAUCCUCAAUAGUGAGGAUUGACACAUCAAAAGUGCCACCUCCCAAGUCAAAAAUGAGCAACAGAGGAUUGAGCAUCA
B4: chr5:136386016:136386017:-_ENSMUSG00000051391_ENSMUST00000055808|mus_hu|FALSE|FALSE (ssRNA)
RNA: GGGAGUUCUACAGUCCGACGAUCUUCUCUCAAGAGGAUUAAUAAUUUUGGUGGUGGAUUUACGUUAAGAGGAAAGAAGGACCAAAAAAAAAAAAUCCCACAGCCACCUGACCUGAAGUCGCUUUCAUUCUCAUUUAGCCUAGGCAACAGAGGAUUGAGCAUCA
B5: 74707188_74715441_250_3pUTR_ENSMUSG00000024067_ENSMUST00000112571|mouse|control|control (ssRNA)
RNA: GGGAGUUCUACAGUCCGACGAUCUUUUCGACUAUUCUCUCAACGCUGUCUGUGAGCCCGUACUCAGAGUGAGGGUUUUCUGCAACCUGUGUCUGUCCCUCCAGCAUCUGCUCCGACUCCAUGGCGGACCCUGCAAACCGCAAUCAACAGAGGAUUGAGCAUCA
B6: chrX:98862621:98862622:+_ENSMUSG00000034160_ENSMUST00000044475|mus_hu|mus_mus_mus_hu_False|28_28 (ssRNA)
RNA: GGGAGUUCUACAGUCCGACGAUCCUGCAUCUCCUUUAGAGUGUUUCCCAUAUUAGAGUAGGCAUCAGCAAAGGUAGGACUGAUUCGAAUAGCCUCCUUAUAAUGCAUCAGUGCUUCCUGCAGUUUUCCCUGCUGCUGCAGUACCAACAGAGGAUUGAGCAUCA
B7: chr6:108533379:108533380:-_ENSG00000112335_ENST00000426155|hu_hu|FALSE|FALSE (ssRNA)
RNA: GGGAGUUCUACAGUCCGACGAUCGCCCCUUCUUGCCAAAUUUCAGGCAUGUCUUAUUUUAGAUGGAGUAUAGCUUUUAUCUAUUAUUUCAUCUUGUAAAAACAUGUGAAGACAACGUUCGUUCUGUGCCAGAGGAUGACCAGCCAACAGAGGAUUGAGCAUCA
B8: chr5:135513207:135513208:+_ENSG00000113658_ENST00000545279|hu_mus|motif|central (ssRNA)
RNA: GGGAGUUCUACAGUCCGACGAUCCCAUGUCAGCUCACAGCAUCUGUACUGGAAAUUCCUCUAAAAUUAAAACAAGUCCACGGAAAAUAUAGUUGAAAGAAUACUUCUGCACUAUGAAACAGAAGAAAUGGGGUUCAGCGGAGACAACAGAGGAUUGAGCAUCA
B9: 38536359_38536479_3342_CDS_ENSG00000182670_ENST00000355666|human|control|control (ssRNA)
RNA: GGGAGUUCUACAGUCCGACGAUCCCAUAGCUUCUUAUUGCGGACAACAUAUUCGUUACUGUGUUGGUCAUAGAGAGCUUCGAAUUCUUCUACAUCUUGCCGAAGAUGGUCAGGCACUGCAAAUGGGCCUGCAGAAUCUGAAUUCAACAGAGGAUUGAGCAUCA
B10: chr3:179052105:179052106:+_ENSG00000121864_ENST00000484866|hu_mus|motif|central (ssRNA)
RNA: GGGAGUUCUACAGUCCGACGAUCCCCAAACCUCAUCAAGCACUCACUACAUUUAUGAGGCAAGUCAGCUGAAUGCUUGAAAUCGGGAUGAAUUUUAAGAUCGUCAAUUUGUCCUGUUGAAUAUUCACAAUAUUGGCAUAAGUACAACAGAGGAUUGAGCAUCA
B11: chr8:95500983:95500984:-_ENSG00000164944_ENST00000437199|hu_hu|hu_hu_hu_mus_True|28_108 (ssRNA)
RNA: GGGAGUUCUACAGUCCGACGAUCAGAAGGAUUUUUACGAGUAAAGGACCGUACAUGACGGCCUCUACCACUGCCUCCACUAACAAACUUUCCUCUCGAGCCUCCACCUGCCGCUAUUGUACUAGCCCAGGACGGUCCCAGGCCCAACAGAGGAUUGAGCAUCA
B12: chr14:55818557:55818558:+_ENSG00000178974_ENST00000313833|hu_hu|FALSE|FALSE (ssRNA)
RNA: GGGAGUUCUACAGUCCGACGAUCUGUUGUGCUUUCAUUCAACUGGGAAUAGUCUGACAAGUGCUGACCAGGUGGCAAAAAAAACAACAUCCCUGGAACUGGGUCUUCACAGGAGUUUAAAAUGGAAGGCUGGUCUUUGUCUACCAACAGAGGAUUGAGCAUCA
B13: chr18:56819859:56819860:+_ENSG00000166562_ENST00000588875|hu_mus|hu_hu_hu_mus_True|38_78 (ssRNA)
RNA: GGGAGUUCUACAGUCCGACGAUCAACCUUGAUUACUCUGUGAACUAUCGGAAUGUCUCGUCCUUCAACCUUAAAAACAACUAUUUCACCAGCUCUGAUUGGGUCUUCCCGGAAAUUCGUGAGGAACAGCAGAUCUCCUCUGUGCAACAGAGGAUUGAGCAUCA
B14: chr18:34476965:34476966:+_ENSMUSG00000005871_ENSMUST00000115781|mus_mus|motif|central (ssRNA)
RNA: GGGAGUUCUACAGUCCGACGAUCCAGUUUCCUCCUCAGGGUUGGGCUUGGGGCUUCUUUGAUGAAAGUAGACUGGCGUACGGAUGCAGGCCUUUCUGAUCUGUCUGAUUCACUUCCACUUGAUUUAGUUGAAGACAUUCUAGACAACAGAGGAUUGAGCAUCA
B15: chr16:94664741:94664742:+_ENSMUSG00000040785_ENSMUST00000117648|mus_hu|mus_mus_mus_hu_False|8_98 (ssRNA)
RNA: GGGAGUUCUACAGUCCGACGAUCUGGUACUGAUCUUUGCAUUGGAUAUUCAGGAGAAAGGCUGGCCAAGGGUGUAUAUAUGCUGGUGUACUGGGGCAAACCUGGUAACACGUUUAUGUAUGCUGGCCGCUGGGUGAUGAUAUCCAACAGAGGAUUGAGCAUCA
B16: chr10:33190432:33190433:-_ENSG00000150093_ENST00000302278|hu_mus|hu_hu_hu_mus_True|48_108 (ssRNA)
RNA: GGGAGUUCUACAGUCCGACGAUCUACAUUUUCAAAACCUGCAUGUGAAUAAAACCCUGGCCACAGAGCCCCAAAACUACCCUACUGUGACUAUGGAGCUGCUGCUGUGAGCUUGGUGUUGCAAAAUCCGCCUGAGUAGGAUUCCAACAGAGGAUUGAGCAUCA
B17: 40576651_40585488_1869_3pUTR_ENSMUSG00000025757_ENSMUST00000077083|mouse|control|control (ssRNA)
RNA: GGGAGUUCUACAGUCCGACGAUCGAGGUGCCUUUGCUUUGGCCCCGGUGUGGUCAAUCUCCUCUUCUGGGGUGUGCUCAGCAUGACAUUUCUGAUGACCUCCUUCUUCUUGGUCAACCUGCAUUUUGUCCACAUCCUCUUUGCCAACAGAGGAUUGAGCAUCA
B18: chr2:119791414:119791415:+_ENSMUSG00000033943_ENSMUST00000110774|mus_mus|FALSE|FALSE (ssRNA)
RNA: GGGAGUUCUACAGUCCGACGAUCUCCUACUUUACCAGAAAGCUUAGGUUUUUAAUUAUGACUGAAAGGGUAAGGGAAGAACUAUUCUGGAUAUGAAACAGUCUGCUGAAUGACAAAAUCCCUUCACUUUGGUAUUCCAUAAUACAACAGAGGAUUGAGCAUCA
B19: chr8:86505109:86505110:+_ENSMUSG00000005469_ENSMUST00000005606|mus_mus|FALSE|FALSE (ssRNA)
RNA: GGGAGUUCUACAGUCCGACGAUCCUUGUGCUUCACCAGCAUCACUCGCCCAAAGGAGCCGGUGCCAAGGGUCUUGAUUCUAUCAAACUGAUCCAACUGGGCUGUAUUCUGAGAAGGGGUCUCCCAUUUUUUCAGGAAAUCUUCCAACAGAGGAUUGAGCAUCA
B20: 114483779_114483899_1066_CDS_ENSG00000163349_ENST00000369558|human|control|control (ssRNA)
RNA: GGGAGUUCUACAGUCCGACGAUCCUGCUGCAAGAUUGGUCUGAUGUACUUGAGUGGCAGUGGGCUAAAUUUGUUUUGCUUUAGAAAAUCAUAUAAGUUCUGCUCCAACAUUUCAAAAACAAGGCAGGUGUGAUUCUUAUGCUGCAACAGAGGAUUGAGCAUCA
B21: chr7:75932113:75932114:+_ENSG00000106211_ENST00000248553|hu_hu|hu_hu_hu_mus_False|18_88 (ssRNA)
RNA: GGGAGUUCUACAGUCCGACGAUCCUGCGACCACUCAUCGGGCAACCGGGGCAGCCCGAAAGCUUGAUCGAAGAGGCGGCUGUGUGCAGGGUACCAGUCCCGGAAUGGUUCCCAGCUGCCCCGCAGGAGCAGCGAGAAGGGCACCAACAGAGGAUUGAGCAUCA
B22: 46328956_46329076_1860_CDS_ENSMUSG00000033949_ENSMUST00000037011|mouse|control|control (ssRNA)
RNA: GGGAGUUCUACAGUCCGACGAUCUGUGUAAUGGCCCACUUGGAUGCGCUCCGCAGCCAGGAGGACGUUAAAUCCAGCUCUGCUCUCCACCCGGUCUCUCUUCAGGUUCAGCAAGAGGUGCUCAGUGUUGUAGCCACACUUCUCCAACAGAGGAUUGAGCAUCA

biological target: T1, UNK ZnF1-3; assay: nsRBNS (natural sequence RNA bind-n-seq); RBNS binding buffer (assumed for nsRBNS): 25 mM Tris pH 7.5, 150 mM KCl, 3 mM MgCl2, 0.01% Triton X-100, 500 ug/ml BSA, 20 U/ml SUPERase-In, 4 C; UNK is unkempt and MSI1 is Musashi-1; names of the RNAs are library labels; protein concentration not given here; high values mean tight binding

Q: How did the binding signal turn out when B1 was run?
A: 0.48 enrichment R

Q: B2 was tested. Which binding signal did it give?
A: 0.482 enrichment R

Q: For B3, which binding signal is on record?
A: 1.45 enrichment R

Q: For B4, which binding signal is on record?
A: 1.69 enrichment R

Q: How did the binding signal turn out when B5 was run?
A: 0.515 enrichment R

Q: B6 was tested. Which binding signal did it give?
A: 1.04 enrichment R

Q: With B7 as the binder, how does the binding signal read?
A: 1.03 enrichment R

Q: With B8 as the binder, how does the binding signal read?
A: 2.14 enrichment R

Q: B9 was tested. Which binding signal did it give?
A: 0.838 enrichment R

Q: For B10, which binding signal is on record?
A: 0.935 enrichment R

Q: Which binding signal does the source give for B11 here?
A: 1.09 enrichment R

Q: B12 was tested. Which binding signal did it give?
A: 1.75 enrichment R

Q: B13 was tested. Which binding signal did it give?
A: 0.872 enrichment R

Q: Which binding signal does the source give for B14 here?
A: 0.66 enrichment R

Q: For B15, which binding signal is on record?
A: 1.16 enrichment R

Q: Which binding signal does the source give for B16 here?
A: 1.17 enrichment R

Q: Which binding signal does the source give for B17 here?
A: 0.406 enrichment R

Q: B18 was tested. Which binding signal did it give?
A: 1.34 enrichment R

Q: For B19, which binding signal is on record?
A: 1.25 enrichment R

Q: Which binding signal does the source give for B20 here?
A: 1.44 enrichment R

Q: For B21, which binding signal is on record?
A: 1.12 enrichment R

Q: With B22 as the binder, how does the binding signal read?
A: 0.85 enrichment R
